Data taken from patent US10299477B2 (priority 2015, dated 2019).

Legend:
Assay type in all cases: in vivo
Botrytis cinerea = assay: Test Example B: Gray mold on tomato; settings: for Test B control value: Gray mold on tomato
Text: [Test Example B] Gray Mold on Tomato
Seeds of a test plant (tomato variety: Oogata Fukuju) were planted followed by cultivating until three to five first leaves (true leaves) appeared.

Alternaia brassicicola = assay: Test Example C: Alternaria sooty spot on cabbage; settings: for Test C control value: Alternaria sooty spot on cabbage
Text: [Test Example C] Alternaria Sooty Spot on Cabbage
Seeds of a test plant (cabbage variety: Shikidori) were planted followed by cultivating until the cotyledons extended.

[1] = tested on: Blumeria graminis f sp. hordei; assay: Test Example D: Powdery mildew on barley; settings: for Test D control value: Powdery mildew on barley
Text: [Test Example D] Powdery Mildew on Barley
After the sprayed dilutions were dried, conidia of Blumeria graminis f sp. hordei were inoculated to the plants by shaking off.

Puccinia recondita = assay: Test Example E: Brown rust on wheat; settings: for Test E control value: Brown rust on wheat
Text: [Test Example E] Brown Rust on Wheat

[2] = 250 ppm spray, preventive, control value class

CCn1c(-c2c(F)cccc2F)c(-c2c(F)ccc(OC)c2F)cc(Cl)c1=O [Compound 106]
Test B control value (Botrytis cinerea): H (H shows more than 50% of control values)
Test C control value (Alternaia brassicicola): H (H shows more than 50% of control values)
Test D control value [1]: H (H shows more than 50% of control values)
Test E control value (Puccinia recondita): H (H shows more than 50% of control values)

CCn1c(-c2ncc(Cl)cc2Cl)c(-c2ccc(F)cc2)cc(Br)c1=O [Compound 25]
Test B control value (Botrytis cinerea): H (H shows more than 50% of control values)
Test C control value (Alternaia brassicicola): H (H shows more than 50% of control values)
Test D control value [1]: H (H shows more than 50% of control values)
Test E control value (Puccinia recondita): H (H shows more than 50% of control values)

CCn1c(-c2c(F)cc(OC)cc2F)c(-c2ccc(F)cc2Cl)cc(Br)c1=O [Compound 34]
Test B control value (Botrytis cinerea): H (H shows more than 50% of control values)
Test C control value (Alternaia brassicicola): H (H shows more than 50% of control values)
Test D control value [1]: H (H shows more than 50% of control values)
Test E control value (Puccinia recondita): H (H shows more than 50% of control values)

Cn1c(-c2c(F)cccc2F)c(-c2ccc(F)cc2Cl)ccc1=O [Compound 64]
Test B control value (Botrytis cinerea): H (H shows more than 50% of control values)
Test C control value (Alternaia brassicicola): H (H shows more than 50% of control values)
Test D control value [1]: H (H shows more than 50% of control values)
Test E control value (Puccinia recondita): H (H shows more than 50% of control values)

CCn1c(-c2c(F)cc(OC)cc2F)c(-c2cc(OC)cc(OC)c2Br)ccc1=O [Compound 72]
Test B control value (Botrytis cinerea): H (H shows more than 50% of control values)
Test C control value (Alternaia brassicicola): H (H shows more than 50% of control values)
Test D control value [1]: H (H shows more than 50% of control values)
Test E control value (Puccinia recondita): H (H shows more than 50% of control values)

CCn1c(-c2c(F)cccc2F)c(-c2ccc(F)cc2)ccc1=O [Compound 20]
Test B control value (Botrytis cinerea): H (H shows more than 50% of control values)
Test C control value (Alternaia brassicicola): H (H shows more than 50% of control values)
Test D control value [1]: H (H shows more than 50% of control values)
Test E control value (Puccinia recondita): H (H shows more than 50% of control values)

CCn1c(-c2c(F)cccc2F)c(-c2cccc(OC)c2)ccc1=O [Compound 100]
Test B control value (Botrytis cinerea): H (H shows more than 50% of control values)
Test C control value (Alternaia brassicicola): H (H shows more than 50% of control values)
Test D control value [1]: H (H shows more than 50% of control values)
Test E control value (Puccinia recondita): H (H shows more than 50% of control values)

CCN1C(=O)CCC(c2cc(OC)cc(OC)c2)=C1c1c(F)cc(F)cc1F [Compound 130]
Test B control value (Botrytis cinerea): H (H shows more than 50% of control values)
Test C control value (Alternaia brassicicola): H (H shows more than 50% of control values)
Test D control value [1]: H (H shows more than 50% of control values)
Test E control value (Puccinia recondita): H (H shows more than 50% of control values)

Cn1c(-c2c(F)cccc2F)c(-c2ccccc2I)cc(Cl)c1=O [Compound 115]
Test B control value (Botrytis cinerea): L (L shows 50% or less of control values)
Test C control value (Alternaia brassicicola): L (L shows 50% or less of control values)
Test D control value [1]: L (L shows 50% or less of control values)
Test E control value (Puccinia recondita): H (H shows more than 50% of control values)

CCN1C(=O)CCC(c2ccc(F)cc2)=C1c1c(F)cccc1F [Compound 18]
Test B control value (Botrytis cinerea): H (H shows more than 50% of control values)
Test C control value (Alternaia brassicicola): H (H shows more than 50% of control values)
Test D control value [1]: H (H shows more than 50% of control values)
Test E control value (Puccinia recondita): H (H shows more than 50% of control values)

CCn1c(-c2c(F)cccc2F)c(-c2ccccc2F)cc(Cl)c1=O [Compound 141]
Test B control value (Botrytis cinerea): H (H shows more than 50% of control values)
Test C control value (Alternaia brassicicola): H (H shows more than 50% of control values)
Test D control value [1]: H (H shows more than 50% of control values)
Test E control value (Puccinia recondita): H (H shows more than 50% of control values)

COc1ccc(Cl)c(-c2cc(Cl)c(=O)n(C)c2-c2c(F)cccc2F)c1 [Compound 60]
Test B control value (Botrytis cinerea): H (H shows more than 50% of control values)
Test C control value (Alternaia brassicicola): H (H shows more than 50% of control values)
Test D control value [1]: H (H shows more than 50% of control values)
Test E control value (Puccinia recondita): H (H shows more than 50% of control values)

COc1cc(OC)cc(C2=C(c3c(F)cccc3F)N(C)C(=O)CC2)c1 [Compound 27]
Test B control value (Botrytis cinerea): L (L shows 50% or less of control values)
Test C control value (Alternaia brassicicola): H (H shows more than 50% of control values)
Test D control value [1]: L (L shows 50% or less of control values)
Test E control value (Puccinia recondita): H (H shows more than 50% of control values)

CCn1c(-c2c(F)cccc2F)c(-c2ccccc2Br)cc(Br)c1=O [Compound 87]
Test B control value (Botrytis cinerea): H (H shows more than 50% of control values)
Test C control value (Alternaia brassicicola): H (H shows more than 50% of control values)
Test D control value [1]: H (H shows more than 50% of control values)
Test E control value (Puccinia recondita): H (H shows more than 50% of control values)

CCn1c(-c2c(F)cccc2F)c(-c2ccccc2I)cc(Cl)c1=O [Compound 112]
Test B control value (Botrytis cinerea): H (H shows more than 50% of control values)
Test C control value (Alternaia brassicicola): H (H shows more than 50% of control values)
Test D control value [1]: H (H shows more than 50% of control values)
Test E control value (Puccinia recondita): H (H shows more than 50% of control values)

CCn1c(-c2c(F)cccc2F)c(-c2c(Cl)c(OC)cc(OC)c2Br)cc(Br)c1=O [Compound 70]
Test B control value (Botrytis cinerea): H (H shows more than 50% of control values)
Test C control value (Alternaia brassicicola): L (L shows 50% or less of control values)
Test D control value [1]: L (L shows 50% or less of control values)
Test E control value (Puccinia recondita): L (L shows 50% or less of control values)

CCN1C(=O)CCC(c2cc(F)ccc2Cl)=C1c1c(F)cc(F)cc1F [Compound 320, 5-(2-chloro-5-fluorophenyl)-1-ethyl-6-(2,4,6-trifluorophenyl)-3,4-dihydropyridine-2(1H)-one]
Test B control value (gray mold on tomato) (Botrytis cinerea; [2]): H (H shows more than 50% of control values)
Test C control value (Alternaria sooty spot on cabbage) (Alternaia brassicicola; [2]): H (H shows more than 50% of control values)
Test D control value (powdery mildew on barley) [1, 2]: H (H shows more than 50% of control values)
Test E control value (brown rust on wheat) (Puccinia recondita; [2]): H (H shows more than 50% of control values)

CCn1c(-c2c(F)cc(F)cc2F)c(-c2cc(OC)cc(OC)c2)ccc1=O [Compound 131]
Test B control value (Botrytis cinerea): H (H shows more than 50% of control values)
Test C control value (Alternaia brassicicola): H (H shows more than 50% of control values)
Test D control value [1]: H (H shows more than 50% of control values)
Test E control value (Puccinia recondita): H (H shows more than 50% of control values)

COc1ccc(Cl)c(-c2ccc(=O)n(C)c2-c2c(F)cccc2F)c1 [Compound 57]
Test B control value (Botrytis cinerea): H (H shows more than 50% of control values)
Test C control value (Alternaia brassicicola): H (H shows more than 50% of control values)
Test D control value [1]: H (H shows more than 50% of control values)
Test E control value (Puccinia recondita): H (H shows more than 50% of control values)

CCn1c(-c2c(F)cccc2F)c(-c2ccccc2)cc(Br)c1=O [Compound 50]
Test B control value (Botrytis cinerea): H (H shows more than 50% of control values)
Test C control value (Alternaia brassicicola): H (H shows more than 50% of control values)
Test D control value [1]: L (L shows 50% or less of control values)
Test E control value (Puccinia recondita): L (L shows 50% or less of control values)

Cn1c(-c2c(F)cccc2F)c(-c2ccccc2)cc(Cl)c1=O [Compound 49]
Test B control value (Botrytis cinerea): H (H shows more than 50% of control values)
Test C control value (Alternaia brassicicola): H (H shows more than 50% of control values)
Test D control value [1]: L (L shows 50% or less of control values)
Test E control value (Puccinia recondita): H (H shows more than 50% of control values)

CCn1c(-c2c(F)cccc2F)c(-c2cc(OC)cc(OC)c2Br)ccc1=O [Compound 16]
Test B control value (Botrytis cinerea): H (H shows more than 50% of control values)
Test C control value (Alternaia brassicicola): H (H shows more than 50% of control values)
Test D control value [1]: H (H shows more than 50% of control values)
Test E control value (Puccinia recondita): H (H shows more than 50% of control values)

CCn1c(-c2c(F)cccc2F)c(-c2c(Cl)c(OC)cc(OC)c2Cl)cc(Br)c1=O [Compound 83]
Test B control value (Botrytis cinerea): H (H shows more than 50% of control values)
Test C control value (Alternaia brassicicola): L (L shows 50% or less of control values)
Test D control value [1]: L (L shows 50% or less of control values)
Test E control value (Puccinia recondita): H (H shows more than 50% of control values)
